This is one part of the list.
system: PfHDP1 homeodomain (GST-tagged); assay: gcPBM binding intensity (ln(normalized median fluorescence intensity)); higher = stronger DNA binding
Summary of the method: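 An Agilent 4 × 180k array carrying primer-extended double-stranded 36-bp intergenic genomic probes and negative controls received GST-tagged P. falciparum DNA-binding domains expressed in E. coli, about 25 μg on average, for 1 h. The binding buffer contained 1× PBS, 1% milk, 0.2 mg/ml BSA, 0.5% salmon testes DNA and 0.03% Triton X-100. Binding intensity is the top Masliner-normalised natural-log median intensity across replicate spots of either probe orientation, read after Alexa488 anti-GST antibody staining and a 488 nm scan.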

Sequence | gcPBM binding intensity (ln)
CATAAATTAAAACACACACACACAAAAAAAAAAAAA [CACACA_site2262] | 6.73
ATATTATATATATACACACACACATGCATGCACATA [CACACA_site7917] | 10
TATTTTCTCGTTTGCATGCACCTTATTTTATGTGGT [GTGCAC_site9470] | 9
TAAAATTTGCGATGCACACAGAATAGCTAATATGAC [CACACA_site2995] | 8.5
TACTAAAACCCATACACACACATATTTATAGTACCA [CACACA_site7484] | 6.77
AAATTCTGCATCGAGGTGCGCCATAAAAATTGTGGT | 7.38
CATATATATTTTATATGTACATATATATTTTATATA [XGTACX_site8665] | 6.35
ATATATATTTAAAACGCATGCCTTGTTATATATATA [TGCATGCA_site624] | 6.97
ATTACAAAAATATATAAACACACAAATATAATATAT [CACACA_site8962] | 6.9
TAGATATATAGAATTACACACTTTTCTATAATATGA [CACACA_site6475] | 6.11
ATATATATTATAATAACACACATATATTATATTATA [CACACA_site406] | 6.52
TATATATATAAATGAATGCACTTTAGAAAAAAGTAC | 7.93
ATAAAATAAAACAACACACACGAATGTATAAATATA [CACACA_site4643] | 6.7
TAATAATATAAATATGCACACAAATTATTACCCAAA [CACACA_site8805] | 9.53
AATAAAATACAAAAATGTACAAATATAATATACATA [XGTACX_site279] | 6.08
ACATACTCAAATAGCACACACATAAATAAAAATGTA [CACACA_site3864] | 7.77
TAATATAAAATGATAAATGAATGTGATCATTTTATA [CACACA_negctrl_site1034] | 6.05
TTTTGTTCTAATATGGGAACATAAATATTAAATATA [CACACA_negctrl_site1787] | 6.22
AATGGAAAAGGTAGTTGTACAACATGTTAAAATGGT [XGTACX_site1312] | 7.56
ATATAAATATTAATTACACACAAAAAAAAAAAAAAA [CACACA_site6671] | 6.26
CTCAAAAAATTTCATAGTACTTTAAAATACTATAAT [XGTACX_site1939] | 6.14
AATAAAAAAAAACGCACACACAAATATATTCCATTC [CACACA_site1224] | 6.87

Sequence | gcPBM binding intensity (ln)
TTGAAGAATAAATATGCACACATGCATATATTTTTA [CACACA_site5840] | 9.33
ATATAAATAAACAACTTTGTTGGCCTTCCAAAATAT [CACACA_negctrl_site1181] | 6.29
GGGTTGATATATATTTGTACATATTATTATTTATTA [XGTACX_site7116] | 7.37
ATATATATATATTATGTGCGCATATACCATTTTAAT [GTGCAC_site9575] | 8.83
TTTATTTTAACTTGTTCACACATTTGAATAAATAAA [CACACA_site5064] | 6.3
ACATTTATATATAATTGTACCCTACATTCTCTTTTT [XGTACX_site189] | 6.43
GAAAAAAAAAAAAAAAGAAAATTCATATTTTTAATA [XGTACX_negctrl_site513] | 6.08
AAAAATATATAAACACGTACACACACATATATGTAT [XGTACX_site7436] | 6.61
TACCAAAAAAAAAAAAAAAATTAAATAAATATGAAA [TGCATGCA_negctrl_site383] | 5.82
AGATATTTTTCTTAAGTACACACTAAATAGAAACTA [CACACA_site44] | 6.12
TTTTTTTTTTTCAGTTGTACATTGGGAAAATATATA [XGTACX_site4416] | 6.27
AGTCTGAATAAAATTACACACATATACCTATAAATA [CACACA_site6929] | 6.4
TTTAAAAAAATGAAATAAAAAAAAAATAAAATAAAA [XGTACX_negctrl_site316] | 6.36
AAATAATTTATATATTGTACAAATATTAAATGCGAA [XGTACX_site3390] | 7.16
ATATATATAATTTGTACACACAAATATGCATATATA [CACACA_site3432] | 6.64
AGTACATTTTTTTTAATAGGAAAAAAAATATTTATT [TGCATGCA_negctrl_site575] | 6.17
AAGTATTATTTTTATGCATGTGAAGTGCAAAATAAA [TGCATGCA_site198] | 10.2
ATAATATGTAATATTACACACAATTCATCATTTTTT [CACACA_site3159] | 6.53
ATATACACCGTTGAATGTACATAAATAATATTAATA [XGTACX_site2893] | 6.83
AAAAAGTGACTCCTTACACACTTTACATAATTTAGT [CACACA_site4606] | 6.24
TAAAAGAATAAAAGTAGTACTTTTTTTTATATTAGA [XGTACX_site368] | 5.7
TCTTTTTTTTTTTATTGTACAAGAAAAGGAAAAAAT [XGTACX_site3717] | 6.51
